Reference: ChEMBL document CHEMBL4888484, “Replenishing the malaria drug discovery pipeline: Screening and hit evaluation of the MMV Hit Generation Library 1 (HGL1) against asexual blood stage Plasmodium falciparum ,using a nano luciferase reporter read-out” (2022)
About 540 (0.36%) of roughly 150,000 compounds showed an effect of 50% or more. The list shows a part of the results.

tested on: Plasmodium falciparum; test: Primary screen in NF54 nanoGlo assay, in single point, at 2uM, 72h; a lower Z score goes with more inhibition; assay type: functional, Erythrocyte; conditions: timepoint 72 hour

Compound | % Inhibition [%] | Z score
Cc1cc(C)c(C(=O)NC[C@@]2(c3cnn(C)c3)CCCO2)[nH]1 | -4 | 0.37
Cc1cc(NC(=O)N(C)CC2(CO)CC2)n(-c2cc(C)c3ccccc3n2)n1 | -1 | 0.09
Cc1c(NC(=O)CCn2nnnc2C)cnn1C | 1 | -0.24
Cc1cc(-c2ccc(C)c(S(=O)(=O)CCC(=O)NCc3ccc(Cl)cc3)c2)on1 | -2 | 0.27
CCn1cc(C#N)c(=O)n(CC(=O)N2CCN(S(=O)(=O)c3ccc4c(c3)CCCC4)CC2)c1=O | 6 | -1.14
O=S(=O)(c1cccnc1)N1CCN(S(=O)(=O)c2cccs2)CC1 | 8 | -1.06
CN1CCc2[nH]nc(C(=O)NC(c3cccs3)[C@H]3C[C@@H](O)C3)c2C1 (stereo partly specified) | -3 | 0.48
CN1CCNC(=O)C[C@@H]2CN(C(=O)c3ccccc3)C[C@@H]2n2cc(nn2)Cn2cccc(c2=O)C1=O | -10 | 1.98
Cc1cc(NC(=O)Nc2cc(C)on2)no1 | -1 | 0.17
CCOc1ccccc1NC(=O)[C@H]1CCCN(c2nc3c(s2)c(C)nn3-c2ccc(C)cc2)C1 | -7 | 1.31
N#Cc1ccc(NC2CCC3(CC2)OCCO3)cc1 | -2 | 0.37
Cc1ncsc1CN(C)c1c(F)cncc1Cl | -14 | 1.72
COc1ccc(-c2nc(NCCN3CCCCC3)nc3nn(Cc4ccccc4)c(N)c23)c(F)c1 | -4 | 0.68
COCCNC(=O)[C@H]1C[C@H](Oc2ccccc2)CN1S(=O)(=O)c1ccc(OC)cc1 | -14 | 2.75
O=C1CN(Cc2ccc(CN3CCCCC3)s2)C[C@H](O)CN1Cc1cccnc1 | -19 | 2.17
Cc1ccc(-c2nc(NC[C@H]3CCCO3)ncc2C(=O)O)cc1 | -6 | 0.8
C[C@H]1CC(NC(=O)c2ccns2)=NN1Cc1ccccc1 | -13 | 2.42
CC(C)c1nsc(N[C@H]2CCCN(C(N)=O)C2)n1 | -13 | 1.52
O=C(c1ccc[nH]1)N1CC2CCC1C1CN(Cc3ccccc3)CC21 (stereo unspecified) | 4 | -0.54
O=C1N(Cc2ccc(F)c(F)c2)CCC[C@@]12CCN(C1CCC1)C2 | 7 | -0.65
CNC(=O)C(C)(C)CNc1ccncc1Cl | 1 | -0.11
O=C(Cc1cccnc1)NC1CCN(c2nnc3ccc(Cl)cn23)CC1 | 28 | -3.18
CC1CCc2ccccc2N1CCC(=O)N1CCCC(O)C1 (stereo unspecified) | -12 | 1.27
C[C@H](O)c1onc(-c2cccs2)c1C(=O)N1CCC(Cc2ccccc2)CC1 | 3 | -0.41
Cc1ccnc(-c2noc(Cn3c(=O)c(C)cn(C)c3=O)n2)c1 | 37 | -1.67
O=C(NCC1CCN(C(=O)c2cn[nH]c2)CC1)c1ccoc1 | -3 | 0.39
CN(C[C@H]1CC(=O)N(C2CCCC2)C1)C(=O)Nc1ccc2ncsc2c1 | 6 | -0.95

Compound | % Inhibition [%] | Z score
COCc1ccccc1CNCc1cnc(-c2ccccc2)s1 | 2 | -0.23
NC(=O)C[C@H](NC(=O)COc1cccc2cccnc12)C1CCCCC1 | 8 | -0.88
Cc1nc(C2CN(c3ncncc3Cl)C2)n[nH]1 | -2 | 0.44
Cc1nc2cc(N3C[C@@H](C(=O)NCc4ccco4)CC3=O)ccc2o1 | -10 | 2.02
O=C(c1cccs1)N(C[C@H]1CCCO1)c1nc(-c2cccc(C(F)(F)F)c2)cs1 | -1 | 0.29
COc1ccc(NC(=O)c2cc(S(=O)(=O)N3CCOCC3)ccc2NC2CCCCC2)cc1 | 0 | 0.01
O=C1CCc2cc(F)cc(NC(=O)NCc3csc(N4CCCC4)n3)c2N1 | -2 | 0.25
Cc1nc(C)c(C(=O)N[C@H]2CCCc3sc(-c4ccc(F)cc4)nc32)o1 | -9 | 1.4
O=C(NC[C@H]1C[C@@H]1C1CCC1)c1c[nH]nn1 | -8 | 1.06
O=C(Cn1cccn1)N1CC(c2nc(-c3ncccn3)no2)C1 | 24 | -0.93
Cc1cc(C)cc(-n2ccc(=O)c(-c3nc(-c4ccc(C)c(C)c4)no3)n2)c1 | 3 | -0.45
O=c1c2cnn(-c3ccccc3)c2nnn1Cc1nnsc1Cl | 6 | -0.59
C[C@H]1C(=O)N2C[C@@H](N(C)C)C[C@H]2CN1C(=O)c1cc(F)ccc1Cl | -24 | 2.08
O=C(c1ccc(C#CC2(O)CCCCC2)cc1)N1CCN(c2ccccc2Cl)CC1 | -12 | 2.2
Cc1ccc2[nH]c(N3CCN(C(=O)Nc4ccc5c(c4)OCO5)CC3)nc2c1 | 4 | -0.63
CCn1ccc(C(=O)N[C@H]2COCC[C@@H]2OCc2ccccn2)cc1=O | -3 | 0.5
O=C(NCc1cccnc1N1CCOCC1)Nc1cn[nH]c1 | -3 | 0.51
CC1Oc2ccc(NC(c3ccccc3)c3ncc[nH]3)cc2NC1=O (stereo unspecified) | -13 | 1.3
O=C(NC1CCC2(CCCCC2)CC1)C1CC=CCC1C(=O)N1CCOCC1 (stereo unspecified) | -4 | 0.54
c1ccc(-c2nc(-c3ccc4c(c3)OCO4)cs2)cc1 | -10 | 1.87
O=S(=O)(c1cc2c(s1)CCCC2)N1CCOCC1 | -11 | 1.27
C[C@H]1CCOCCN1C(=O)c1ccc(F)c(Cl)c1F | -18 | 2.1
COc1ccnc(-c2c[nH]c3ccc(C)cc23)n1 | 1 | -0.07
COC[C@H]1C[C@@H](NC(=O)c2ccc3c(c2)OCO3)[C@H](O)[C@@H]1O | -10 | 1.62
COc1cc(C(F)(F)F)ncc1NC(=O)NC1CCN(CC(C)C)CC1 | -5 | 0.62
O=C(c1cccc(Cl)c1)[C@H]1CCCN(C(=O)Nc2ccc3c(c2)OCO3)C1 | -17 | 2.6
